The source gives no read counts; variants with many changes may rest on few reads.

The source of these data is the RNAGym collection of RNA variant scans (doi:10.7554/elife.90254).

The chains are these.
B1: LINE1-mini (parent)
chain: GGCAGAGCUCAACACAGCGUGGCAAAGUGGCUGUGGCUAGACUGCC

In this data set the parent is B1. The data set is described as follows: self-cleavage, relative activity (ratio to wild type); higher = more cleavage; in vitro, sequencing; the parent is a self-cleaving ribozyme.
For A12C C18A U34G G44C, the self-cleavage is 0.01.
The same measure for A12C A14G G27U U28A A39G G40U: 0; for A12C A24C U34A: 0.01; for A12C C15G A16G A39U G40A: 0.01.
Consider A12C C23U U32C U43G, for which the self-cleavage is 0.
As to A12C G35U C37A, the self-cleavage amounted to 0.07.
As for A12C G29A C31U A41C, the self-cleavage came out at 0.02.
On to A11U U28G G29U, for which the self-cleavage was found to be 0.13.
As for A12C C13G U20G C31G U43C, the self-cleavage stood at 0.
A12C C18G G30U C37A: the self-cleavage worked out at 0.
The same measure for A11U G29U G36C G40C: 0.02.
Regarding A11U C31A C45A, the self-cleavage is 0.03.
The same measure for A12C G27A U32C: 0.02; for A11U G21U C45G: 0.02; for A12G A24C A26U: 0.02.
The same measure for A12C A16C G29A A41C: 0; for A11U C37A C45G: 0.01; for A12C C31U G40U: 0.02.
The same measure for A11U C13U U32A: 0.07; for A11U G29A G36C: 0.02; for A11U G17U C23A U38G: 0.
Turning to A11U C15U U43A G44U C45A, the self-cleavage was found to be 0.01.
Regarding A12C C18A G21C U38C, the self-cleavage turned out to be 0.
A12C G29A G35A G44A C45A: the self-cleavage amounted to 0.07.
With A11U U20A G33A, the self-cleavage stood at 0.01.
A11U G22U G36A: the self-cleavage came out at 0.04.
The same measure for A12C A39U A41G: 0.05; for A12G A24G G29C G30C U32G G35A C45A: 0.01; for A11U G40U C42U C46A: 0.02.
For A11U U20G G36A G40A, the self-cleavage is 0.
Regarding A11U G19U C42G, the self-cleavage amounted to 0.03.
A12C G29U U32A: the self-cleavage turned out to be 0.01.
The same measure for A11U C15A G27U: 0.01; for A12G A16U G29U: 0.03.
The same measure for A12C A16U G44C: 0.07.
The same measure for A12C C18U U34G: 0; for A12C G21U C42U: 0.11.
For A11U C15U C31U, the self-cleavage is 0.05.
Regarding A12G A24U A26C, the self-cleavage was 0.01.
For A11U C15U C18U G22C G29A, the self-cleavage was 0.07.
A12C C42U U43C C46U: the self-cleavage was 0.
The same measure for A12C C15G G27C: 0.01; for A11U C13U G35U A39G C45A: 0.01; for A12C U20A C45A: 0.02.
The same measure for A11U C13U C37U A39G G44A: 0.02; for A12C U32A G36U C45G: 0.02.
On to A12C C13G C23G G30C, for which the self-cleavage was determined as 0.01.
As for A11U G19U G21C G27C, the self-cleavage stood at 0.02.
The same measure for A12C U20C G36C: 0.03; for A12C C18A G19U G21A: 0; for A11U C13U G19A A26G: 0.03.
The same measure for A11U G29U G30A: 0.19; for A12C G22C G35C A41C C46U: 0; for A12C A16G G21U G33U: 0.
The same measure for A11U G19C A24G A26U: 0.02.
With A12C C23U A25C U38A C46A, the self-cleavage worked out at 0.
For A12G A24U G40U A41C, the self-cleavage came to 0.12.
The same measure for A12C C15U C31A: 0.01; for A12G A14U G22A A39U: 0.07; for A12C G29A G30A C31G: 0.01.
The same measure for A12C G21A U28C G36A: 0.02; for A11U U32G A41U: 0.02; for A11U U32G A39C C42U: 0.03.
The same measure for A12C C18U G40A: 0.01.
In the case of A11U G19U C45A C46U, the self-cleavage was determined as 0.03.
The same measure for A12C A26U C46U: 0.01.
The same measure for A12C G40C A41U: 0; for A12C G17C G19A G27A G44U: 0.02.
In the case of A12G A16G G17C U20C G22A, the self-cleavage came to 0.02.
The same measure for A11U C18A A39U A41G: 0.01.
The same measure for A11U G27A U38C G40C G44A: 0.01; for A11U C15G A24G G33C G36C: 0.01.
As for A11U G17A G29U, the self-cleavage came to 0.01.
As for A11U G30U G40C, the self-cleavage is 0.02.
On to A12C A26C C31A U34C, for which the self-cleavage was 0.01.
The same measure for A11U G21A C42G: 0; for A12C G30C C31A C45U C46G: 0.01; for A11U C15U G35A U38A: 0.02.
The same measure for A11U C15A U32A: 0.01; for A12C C15A A16U: 0.02.
For A12C G19C C23A G27A C37A C46A, the self-cleavage is 0.01.
For A12C G27U U34C, the self-cleavage turned out to be 0.01.
Consider A11U C18A G27C G36A, for which the self-cleavage was found to be 0.02.
The same measure for A12G A16G G17U: 0.04.
In the case of A12G A16C G40A, the self-cleavage was determined as 0.01.
The same measure for A11U G29A C42A: 0.02; for A11U C15A A26G G40C: 0; for A12C G29A A39U: 0.
The same measure for A12C G22A U32A G36A: 0.02; for A12G A24C C42A: 0.06.
The same measure for A12G A16C G21U U28C G33A: 0.01; for A12C G19U A25U: 0; for A12C G29U G40U: 0.01.
In the case of A11U C23U C31U A41C U43G, the self-cleavage came out at 0.
The same measure for A12C U20C C37A G40C G44A: 0.01; for A12C C13A G30A U34G C45G: 0; for A12C A26C G29U G35C C45U: 0.01.
A12C C15G A26C U38A: the self-cleavage worked out at 0.
The same measure for A12C G17U C23G U28A U32G: 0.01; for A12C A24C G44C: 0.01; for A11U G19C G21U A25C U32A C45A: 0.01.
Take A12C A16G C18G: the self-cleavage turned out to be 0.04.
Consider A12C U20G C23A, for which the self-cleavage came out at 0.
For the variant A12C C23G U34A G40A C45G, the self-cleavage was 0.
The same measure for A11U G21U G30A U32G: 0.02.
Take A12C G21U U32G: the self-cleavage stood at 0.02.
As to A12C C18A G19C C23A A39U, the self-cleavage was determined as 0.02.
As for A12G A16U G27C C37U, the self-cleavage came out at 0.17.
The same measure for A11U G36A C45A C46A: 0.06.
In the case of A12C A24C G27C U32G, the self-cleavage is 0.02.
The same measure for A11U U20G C42G: 0.
Regarding A11U G17C U32G G33U, the self-cleavage is 0.03.
For A12C C15A A39G, the self-cleavage is 0.07.
Take A11U C15U G27A: the self-cleavage worked out at 0.47.
On to A11U U20C G29A C31G G44U, for which the self-cleavage is 0.02.
A12C A16C G33A C45G: the self-cleavage turned out to be 0.02.
On to A12C C15U C18G G27C C37A, for which the self-cleavage turned out to be 0.01.
Consider A12C A24C C45G, for which the self-cleavage stood at 0.01.
Consider A11U G19A U20A A25U U28A G29U G40A G44C, for which the self-cleavage is 0.
The same measure for A12C C31A G35C: 0; for A11U G36A C46G: 0; for A11U U34A U38C C46G: 0.03.
The same measure for A12C G17C G27C: 0.02.
On to A12G A14C G22A C31A, for which the self-cleavage came to 0.03.
The same measure for A11U G17C A41C G44U: 0.02; for A11U G17C A24U C42U U43C: 0.04; for A11U C23A G29U G40C: 0.01.
The same measure for A11U C23G A24C U28C U43A: 0.02; for A12C C18U A25G A26G G33C G44C: 0.
The same measure for A12C G22A G44C: 0.05; for A11U G22A G36U: 0.03.
Regarding A11U G21A U32G, the self-cleavage amounted to 0.05.
The same measure for A12C C31U C37U: 0.02; for A12C C18A G36U: 0.02; for A11U U43G C45A C46A: 0.
As for A11U C15U G29C C31U, the self-cleavage stood at 0.5.
With A11U C18G G33U C46A, the self-cleavage was found to be 0.04.
The same measure for A12C G29A C37G C45A: 0; for A11U G27C U28A G33A C42G: 0.
The same measure for A11U C18U U32C: 0.01.
The same measure for A12C C13G A16C G22U: 0.02; for A11U G17A U38A G40U: 0.02.
Regarding A11U U38G A41C, the self-cleavage came out at 0.01.
The same measure for A12C G29A G30C C37U: 0.01.
Consider A11U C15A G21U G30U, for which the self-cleavage was found to be 0.01.
The same measure for A12C G17A C18A G40C C46G: 0; for A11U G22U G27C A41C: 0.01.
The same measure for A12C U20A C23A: 0.03.
As to A12C A14C C18U G19C U28C G40U A41C, the self-cleavage turned out to be 0.02.
In the case of A11U G19C U43C, the self-cleavage came to 0.01.
The same measure for A11U G35U G40U: 0.01; for A12C C15U A24U C37U: 0.03; for A12G A16U C18U G40U: 0.01.
A12C A16U A24C G44A: the self-cleavage was determined as 0.
The same measure for A11U U32C G40A: 0.02; for A12C A14U G19A U20A A25G U28G C31U G35A G40A: 0; for A12C A24U A39C: 0.02.
Regarding A12C C18U U34A C42U G44U, the self-cleavage was 0.
Consider A12C C13G C37G, for which the self-cleavage stood at 0.01.
Consider A12C G29C C42G, for which the self-cleavage stood at 0.
The same measure for A12G A25C C42G: 0.22; for A12C C23U G27U: 0.01; for A12C G30A A41C: 0.03.
The same measure for A12C G29U G33A: 0.01; for A12C G27C C45U: 0.02; for A12G A16G U20C C37U A39C G40A: 0.03.
The same measure for A11U U28C A41U: 0.03.
